# Source: patent US20230287131A1 (ORIONIS BIOSCIENCES, published 2023)
# T1: soluble hTNF-R1 (Peprotech) (human, UniProt P19438 30-211)
# T1 construct: extracellular domain; also called p55
# T1 sequence (looked up): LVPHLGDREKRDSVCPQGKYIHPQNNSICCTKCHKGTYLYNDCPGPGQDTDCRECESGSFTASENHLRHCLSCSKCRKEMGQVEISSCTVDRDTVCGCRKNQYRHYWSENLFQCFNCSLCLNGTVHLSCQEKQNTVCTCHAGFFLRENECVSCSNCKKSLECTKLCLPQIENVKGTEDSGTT
# T2: soluble hTNF-R2 (Peprotech) (human, UniProt P20333 23-257)
# T2 construct: extracellular domain; also called p75
# T2 sequence (looked up): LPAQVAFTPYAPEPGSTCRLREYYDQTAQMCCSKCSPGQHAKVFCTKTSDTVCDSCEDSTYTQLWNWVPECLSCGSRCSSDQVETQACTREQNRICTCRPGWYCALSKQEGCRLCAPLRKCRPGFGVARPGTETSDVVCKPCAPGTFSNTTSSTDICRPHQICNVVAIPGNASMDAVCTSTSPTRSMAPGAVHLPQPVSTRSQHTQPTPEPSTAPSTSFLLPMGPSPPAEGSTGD
# B1: hTNF mutant R32W S86T (N-terminal 6xHis tag) (ligand)
# chain: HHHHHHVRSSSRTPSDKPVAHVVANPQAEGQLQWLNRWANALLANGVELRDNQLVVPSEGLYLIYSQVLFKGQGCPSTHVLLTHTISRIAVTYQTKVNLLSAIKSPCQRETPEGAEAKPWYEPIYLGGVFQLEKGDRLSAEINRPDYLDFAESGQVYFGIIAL
# notes: also called His-TNF mutant
# B2: hTNF mutant Y87F (N-terminal 6xHis tag) (ligand)
# chain: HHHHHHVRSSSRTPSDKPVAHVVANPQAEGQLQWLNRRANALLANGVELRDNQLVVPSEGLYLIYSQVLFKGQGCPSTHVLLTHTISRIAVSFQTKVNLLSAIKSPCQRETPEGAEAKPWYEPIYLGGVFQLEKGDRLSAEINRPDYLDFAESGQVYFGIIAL
# B3: hTNF mutant R32W E146K (N-terminal 6xHis tag) (ligand)
# chain: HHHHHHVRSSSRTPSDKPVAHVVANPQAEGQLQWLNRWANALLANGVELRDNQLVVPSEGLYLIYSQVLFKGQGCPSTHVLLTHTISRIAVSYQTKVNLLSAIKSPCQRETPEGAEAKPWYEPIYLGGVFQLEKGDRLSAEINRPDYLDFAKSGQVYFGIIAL
# B4: hTNF mutant Y87H (N-terminal 6xHis tag) (ligand)
# chain: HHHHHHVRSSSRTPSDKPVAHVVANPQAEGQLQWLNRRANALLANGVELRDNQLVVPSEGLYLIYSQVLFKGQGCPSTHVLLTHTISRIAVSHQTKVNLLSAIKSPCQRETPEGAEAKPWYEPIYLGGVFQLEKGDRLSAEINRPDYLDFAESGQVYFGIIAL
# B5: hTNF mutant L29S (N-terminal 6xHis tag) (ligand)
# chain: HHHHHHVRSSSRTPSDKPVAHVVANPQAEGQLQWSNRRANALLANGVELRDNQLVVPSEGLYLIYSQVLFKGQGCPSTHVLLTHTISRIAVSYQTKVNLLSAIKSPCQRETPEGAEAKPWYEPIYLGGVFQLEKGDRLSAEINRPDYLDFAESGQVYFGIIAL
# B6: hTNF mutant E146K (N-terminal 6xHis tag) (ligand)
# chain: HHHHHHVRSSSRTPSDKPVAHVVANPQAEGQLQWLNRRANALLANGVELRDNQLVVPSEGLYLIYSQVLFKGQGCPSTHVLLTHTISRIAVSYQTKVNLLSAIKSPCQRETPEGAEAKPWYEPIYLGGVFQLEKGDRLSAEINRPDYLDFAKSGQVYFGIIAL
# notes: also called His-TNF mutant
# B7: hTNF mutant S86T (N-terminal 6xHis tag) (ligand)
# chain: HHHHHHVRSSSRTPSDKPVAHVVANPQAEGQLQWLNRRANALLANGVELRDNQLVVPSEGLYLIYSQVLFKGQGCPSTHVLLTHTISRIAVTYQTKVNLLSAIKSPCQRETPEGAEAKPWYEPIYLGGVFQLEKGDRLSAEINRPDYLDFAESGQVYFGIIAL
# B8: hTNF mutant L29S R32W (N-terminal 6xHis tag) (ligand)
# chain: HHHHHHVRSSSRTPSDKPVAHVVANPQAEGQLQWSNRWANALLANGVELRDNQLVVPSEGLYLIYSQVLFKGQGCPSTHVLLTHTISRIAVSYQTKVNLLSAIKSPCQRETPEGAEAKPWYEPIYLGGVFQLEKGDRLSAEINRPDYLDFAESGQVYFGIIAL
# notes: also called L29 R32W
# B9: hTNF wild type (N-terminal 6xHis tag) (ligand)
# chain: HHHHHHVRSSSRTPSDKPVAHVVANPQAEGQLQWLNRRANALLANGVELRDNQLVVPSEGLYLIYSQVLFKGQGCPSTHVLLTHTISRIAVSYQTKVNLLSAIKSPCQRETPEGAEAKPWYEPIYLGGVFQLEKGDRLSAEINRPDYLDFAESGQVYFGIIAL
# notes: also called WT; WT hTNF
# B10: hTNF mutant D143N A145R (N-terminal 6xHis tag) (ligand)
# chain: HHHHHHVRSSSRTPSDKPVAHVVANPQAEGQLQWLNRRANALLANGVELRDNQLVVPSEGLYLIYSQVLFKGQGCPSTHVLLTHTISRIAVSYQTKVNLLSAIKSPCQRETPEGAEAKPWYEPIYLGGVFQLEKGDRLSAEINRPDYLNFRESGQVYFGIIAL
# B11: hTNF mutant A145T S147D (N-terminal 6xHis tag) (ligand)
# chain: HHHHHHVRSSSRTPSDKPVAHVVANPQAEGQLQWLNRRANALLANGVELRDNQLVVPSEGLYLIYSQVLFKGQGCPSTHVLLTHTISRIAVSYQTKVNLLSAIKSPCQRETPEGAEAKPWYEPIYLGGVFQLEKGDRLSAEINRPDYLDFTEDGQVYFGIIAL
# B12: hTNF mutant A145R (N-terminal 6xHis tag) (ligand)
# chain: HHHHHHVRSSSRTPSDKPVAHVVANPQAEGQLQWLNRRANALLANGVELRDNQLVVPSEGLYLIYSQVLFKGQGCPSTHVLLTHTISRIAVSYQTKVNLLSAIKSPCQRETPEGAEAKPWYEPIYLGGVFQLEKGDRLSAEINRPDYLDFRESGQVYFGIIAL
# notes: also called His-TNF mutant
# Molecular target: T1, soluble hTNF-R1 (Peprotech)
# Test: BLI (Octet RED96), affinity relative to WT hTNF
# Experimental: (§1) KD values were calculated using global fitting with a 1:1 model (R²≥0.95).
row,% WT R1 [%],Binder
1,22.1,B1
2,8.84,B2
3,15,B3
4,15.7,B4
5,22.6,B5
6,17.7,B6
7,41.5,B7
8,30.6,B8

# Molecular target: T2, soluble hTNF-R2 (Peprotech)
# Test: BLI (Octet RED96), His-tagged TNF on HIS1K biosensor, soluble receptor in solution, 1:1 global fit
# Experimental: as §1
row,Kd [nM],Binder
1,23.7,B9
2,138,B10
3,214,B4
4,130,B5
5,7.36,B11
6,4810,B6
7,44,B12
8,220,B7
9,1260,B8

# Molecular target: T1, soluble hTNF-R1 (Peprotech)
# Test: as above
# Experimental: as §1
row,Kd [nM],Binder
1,10.2,B9
2,46.3,B1
3,116,B2
4,68.5,B3
5,65.1,B4
6,45.3,B5
7,57.9,B6
8,24.7,B7
9,33.4,B8
